PubChem BioAssay AID463173 (ICCB-Longwood Screening Facility, Harvard Medical School, 2010)
The whole screen tested about 52,000 compounds, of which about 1,700 (3.3%) were called active. Rule as the data show it: active = survival mostly below about 52% (no sharp cut-off); inactive = mostly above about 56%. The list shows a part of the results.

Each compound was assayed on Wild type (assay: growth inhibition of S. aureus wild type versus tarO mutant, primary screen, teichoic acid synthesis inhibitors, RN4220, OD600 (AID 463173)). Settings: S. aureus RN4220 wild type/DeltatarO growth, OD600, 18 h, hits give low values; concentration not given here unless noted.

SMILES	survival
Cc1cccc(-n2c(/C=C/c3cn(C)c4ccccc34)nc3ccccc3c2=O)c1	inactive: 12%
Cc1cc(NC(=O)c2cccn(Cc3cccc(Cl)c3)c2=O)no1	inactive: 72%
Cn1c(=O)c2ncnnc2n(C)c1=O	inactive: 109%
Cc1ccc(-c2nc(CN3C(=O)CN=C(c4ccccc4)c4cc(Cl)ccc43)c(C)o2)cc1	inactive: 78%
O=S1(=O)N(Cc2ccccc2)CCCN1Cc1cccc(Cl)c1	inactive: 78%
Cc1ccc(Cn2cccc(C(=O)Nc3cc([N+](=O)[O-])ccc3C)c2=O)cc1	inactive: 105%
O=C(COc1cccc(Cl)c1)N1CCN(CCc2ccncc2)CC1	inactive: 79%
O=C(COc1ccccc1Cl)N1CCN(CCc2ccncc2)CC1	inactive: 100%
O=C(CCc1nc(C2=CCN(Cc3cccc(Cl)c3)CC2)no1)Nc1ccccc1F	inactive: 81%
O=c1c2ccccc2nc(/C=C\c2ccc(F)cc2)n1-c1ccccc1F	inactive: 71%
COc1ccc(OCC(=O)N2CCN(Cc3cc(=O)n4nc(-c5ccccc5C)sc4n3)CC2)cc1	inactive: 152%
CC(=O)NS(=O)(=O)c1ccc(NC(=O)c2cccn(Cc3ccc(Cl)cc3)c2=O)cc1	inactive: 71%
Cc1cccc(NC(=O)Cn2cc(C(=O)c3ccccc3)c3ccccc32)c1	inactive: 91%
CN1CCc2cc3c(c4c2C1Cc1ccccc1-4)OCO3 (stereo unspecified)	inactive: 74%
Cc1c(C(c2ccc(F)cc2)c2c(O)c3ccccc3oc2=O)c(=O)n(-c2ccccc2)n1C (stereo unspecified)	inactive: 114%
O=C(COc1ccc(Cl)cc1)Nc1ccc(Cl)cc1C(=O)c1ccccc1	inactive: 68%
Cc1nnc(NC(=O)c2cccn(Cc3ccccc3F)c2=O)s1	inactive: 128%
O=C1CC(c2c(F)cccc2Cl)c2c(c3ccccc3oc2=O)O1 (stereo unspecified)	inactive: 78%
CN=Cc1c(O)[nH]c(=O)[nH]c1=O	inactive: 98%
CCC12CN3CC(CC)(CN(C1)C3c1ccccn1)C2=O (stereo unspecified)	inactive: 85%
CC(=O)N1CC(=O)Nc2ccc(F)cc2C1c1ccccc1 (stereo unspecified)	inactive: 82%

SMILES	survival
Cc1cc(C)cc(-n2c(=O)[nH]c3ccccc3c2=O)c1	inactive: 72%
CCCSc1nc2ccccc2c(=O)n1-c1ccccc1OC	active: -1%
CC1=NN(c2ccccc2)C(=O)/C1=C\c1c(O)[nH]c(=O)[nH]c1=O	inactive: 113%
O=C(Nc1ccon1)c1cccn(Cc2cccc(Cl)c2)c1=O	inactive: 66%
CCCc1nc2ccccc2c(=O)n1-c1ccccc1	inactive: 127%
COCc1c(CN)cnc(C)c1N	inactive: 102%
O=c1cccc2n1CC1CC2CN(c2nc(N3CCCCC3)nc(N3CCCCC3)n2)C1 (stereo unspecified)	inactive: 96%
Cc1oc(-c2ccc(Cl)cc2)nc1CN1C(=O)CN=C(c2ccccc2)c2ccccc21	inactive: 80%
O=c1[nH]c2ccccc2c(=O)n1-c1ccc(Cl)c(Cl)c1	inactive: 91%
Cc1cccc(NC(=O)Cn2cc(C(=O)c3ccccc3)c3ccccc32)c1C	inactive: 71%
Cc1ccc(NC(=O)N(Cc2ccc3c(c2)OCO3)C2CCN(Cc3ccccc3)CC2)cc1F	inactive: 76%
CN(C)C(=O)Oc1cccc2cccnc12	inactive: 91%
COC(=O)CC1=C(C(=O)OC)C2(C(=O)Nc3ccc(F)cc32)C(C#N)=C(N)O1 (stereo unspecified)	inactive: 72%
Cc1cc(C)cc(-n2c(/C=C/c3cccc(F)c3)nc3ccccc3c2=O)c1	inactive: 68%
COc1ccc(NC(=O)CN2C(=O)C(C)N=C(c3ccccc3F)c3cc(Cl)ccc32)c(OC)c1 (stereo unspecified)	inactive: 72%
Cc1nnc(NC(=O)c2cccn(Cc3ccc(Cl)cc3)c2=O)s1	inactive: 65%
O=S1(=O)CC2(N3CCOCC3)CCCCC21 (stereo unspecified)	inactive: 112%
CC(=O)N(C1=NCCCS1)c1ccccc1F	inactive: 107%
COc1ccc(OC)c(NC(=O)Cn2cc(C(=O)c3ccccc3F)c3ccccc32)c1	inactive: 69%
Cc1ccc(-n2c(/C=C/c3ccc(Br)s3)nc3ccccc3c2=O)cc1C	inactive: 138%
